# In the supplement of paper PMC8728848:
# Some of the results follow.
# Legend:
# Test in all cases: glycan array binding signal (z-score within array); higher = stronger binding
# Conditions in all cases: glycan notation: IUPAC condensed, linker removed
# [1] = target: Neu5Ac(a2-6)Gal(b1-4)GlcNAc(b1-3)Gal(b1-4)GlcNAc(b1-3)Gal(b1-4)GlcNAc
# In short: (§1)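 Glycan array binding is given as a within-array Z-score, which can be read as non-binding when negative. The arrays, 3228 of them, came from the Consortium for Functional Glycomics database and were retained only where the protein sequence was available. Z-scores were averaged across arrays of the same protein sequence at different concentrations or buffers and across linkers.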
# [2] = target: Neu5Ac(a2-6)Gal(b1-4)GlcNAc(b1-3)Gal(b1-4)GlcNAc(b1-3)Gal(b1-4)GlcNAc(b1-2)Man(a1-3)[Neu5Ac(a2-6)Gal(b1-4)GlcNAc(b1-3)Gal(b1-4)GlcNAc(b1-3)Gal(b1-4)GlcNAc(b1-2)Man(a1-6)]GalNAc
# In short: as §1
# [3] = target: Neu5Ac(a2-6)Gal(b1-4)GlcNAc(b1-3)Gal(b1-4)GlcNAc(b1-3)GalNAc
# In short: as §1
# [4] = target: Neu5Ac(a2-6)Gal(b1-4)GlcNAc(b1-3)Gal(b1-4)GlcNAc(b1-3)[Neu5Ac(a2-6)Gal(b1-4)GlcNAc(b1-3)Gal(b1-4)GlcNAc(b1-6)]GalNAc
# In short: as §1
# [5] = target: Neu5Ac(a2-6)Gal(b1-4)GlcNAc(b1-3)Gal(b1-4)GlcNAc(b1-6)[Gal(b1-3)]GalNAc
# In short: as §1
# [6] = target: Neu5Ac(a2-6)Gal(b1-4)GlcNAc(b1-3)Gal(b1-4)[Fuc(a1-3)]GlcNAc(b1-3)Gal(b1-4)[Fuc(a1-3)]GlcNAc
# In short: as §1
# [7] = target: Neu5Ac(a2-6)Gal(b1-4)GlcNAc(b1-3)GalNAc
# In short: as §1
# [8] = target: Neu5Ac(a2-6)Gal(b1-4)GlcNAc(b1-3)[Neu5Ac(a2-6)Gal(b1-4)GlcNAc(b1-6)]GalNAc
# In short: as §1
# [9] = target: Neu5Ac(a2-6)Gal(b1-4)GlcNAc(b1-6)GalNAc
# In short: as §1
# [10] = target: Neu5Ac(a2-6)Gal(b1-4)GlcNAc(b1-6)[Gal(b1-3)GlcNAc(b1-3)]Gal(b1-4)Glc
# In short: as §1
# [11] = target: Neu5Ac(a2-6)Gal(b1-4)GlcNAc(b1-6)[Gal(b1-3)]GalNAc
# In short: as §1
# [12] = target: Neu5Ac(a2-6)Gal(b1-4)GlcNAc6S
# In short: as §1
# Neu5Ac(a2-6)GalNAc = target: Neu5Ac(a2-6)GalNAc
# In short: as §1
# [13] = target: Neu5Ac(a2-6)GalNAc(b1-4)GlcNAc
# In short: as §1
# [14] = target: Neu5Ac(a2-6)GalNAc(b1-4)GlcNAc6S
# In short: as §1
# [15] = target: Neu5Ac(a2-6)GlcNAc(b1-4)GlcNAc
# In short: as §1
# [16] = target: Neu5Ac(a2-6)GlcNAc(b1-4)GlcNAc(b1-4)GlcNAc
# In short: as §1
# Neu5Ac(a2-8)Neu5Ac = target: Neu5Ac(a2-8)Neu5Ac
# In short: as §1
# [17] = target: Neu5Ac(a2-8)Neu5Ac(a2-3)Gal(b1-3)GalNAc(b1-4)[Neu5Ac(a2-3)]Gal(b1-4)Glc
# In short: as §1
# [18] = target: Neu5Ac(a2-8)Neu5Ac(a2-3)Gal(b1-3)GalNAc(b1-4)[Neu5Ac(a2-8)Neu5Ac(a2-3)]Gal(b1-4)Glc
# In short: as §1
# [19] = target: Neu5Ac(a2-8)Neu5Ac(a2-3)Gal(b1-4)Glc
# In short: as §1
# [20] = target: Neu5Ac(a2-8)Neu5Ac(a2-3)Gal(b1-4)GlcNAc
# In short: as §1
# [21] = target: Neu5Ac(a2-8)Neu5Ac(a2-3)[Gal(b1-3)GalNAc(b1-4)]Gal(b1-4)Glc
# In short: as §1
# [22] = target: Neu5Ac(a2-8)Neu5Ac(a2-3)[GalNAc(b1-4)]Gal(b1-4)Glc
# In short: as §1
# [23] = target: Neu5Ac(a2-8)Neu5Ac(a2-8)Neu5Ac
# In short: as §1
# [24] = target: Neu5Ac(a2-8)Neu5Ac(a2-8)Neu5Ac(a2-3)Gal(b1-4)Glc
# In short: as §1
# [25] = target: Neu5Ac(a2-8)Neu5Ac(a2-8)Neu5Ac(a2-3)[Gal(b1-3)GalNAc(b1-4)]Gal(b1-4)Glc
# In short: as §1
# [26] = target: Neu5Ac(a2-8)Neu5Ac(a2-8)Neu5Ac(a2-3)[GalNAc(b1-4)]Gal(b1-4)Glc
# In short: as §1
# [27] = target: Neu5Ac(a2-8)Neu5Ac(a2-8)Neu5Ac(a2-8)Neu5Ac(a2-3)[GalNAc(b1-4)]Gal(b1-4)Glc
# In short: as §1
# [28] = target: Neu5Ac(a2-8)Neu5Gc(a2-3)Gal(b1-4)GlcNAc
# In short: as §1
# [29] = target: Neu5Ac(b2-6)Gal(b1-4)GlcNAc
# In short: as §1
# Neu5Ac(b2-6)GalNAc = target: Neu5Ac(b2-6)GalNAc
# In short: as §1
# [30] = target: Neu5Ac9Ac(a2-3)Gal(b1-3)GlcNAc
# In short: as §1
# [31] = target: Neu5Ac9Ac(a2-3)Gal(b1-4)GlcNAc
# In short: as §1
# [32] = target: Neu5Ac9Ac(a2-6)Gal(b1-4)GlcNAc
# In short: as §1
# [33] = target: Neu5Gc(a2-3)Gal(b1-3)GlcNAc
# In short: as §1
# [34] = target: Neu5Gc(a2-3)Gal(b1-3)[Fuc(a1-4)]GlcNAc
# In short: as §1
# Neu5Gc(a2-3)Gal(b1-4)Glc = target: Neu5Gc(a2-3)Gal(b1-4)Glc
# In short: as §1
# [35] = target: Neu5Gc(a2-3)Gal(b1-4)GlcNAc
# In short: as §1
# [36] = target: Neu5Gc(a2-3)Gal(b1-4)GlcNAc(b1-3)Gal(b1-4)GlcNAc(b1-2)Man(a1-3)[Neu5Gc(a2-3)Gal(b1-4)GlcNAc(b1-3)Gal(b1-4)GlcNAc(b1-2)Man(a1-6)]Man(b1-4)GlcNAc(b1-4)GlcNAc
# In short: as §1
# [37] = target: Neu5Gc(a2-3)Gal(b1-4)[Fuc(a1-3)]GlcNAc
# In short: as §1
# [38] = target: Neu5Gc(a2-6)Gal(b1-4)GlcNAc
# In short: as §1
# Neu5Gc(a2-6)GalNAc = target: Neu5Gc(a2-6)GalNAc
# In short: as §1
# [39] = target: Neu5Gc(a2-8)Neu5Ac(a2-3)Gal(b1-4)GlcNAc
# In short: as §1
# [40] = target: Neu5Gc(a2-8)Neu5Gc(a2-3)Gal(b1-4)GlcNAc
# In short: as §1
binder,measurement,setting,value
"SGC, Q9M345 (protein) QNLNFTYNGFHPPLTDISLQGLATVTPNGLLKLTNTSVQKTGHAFCTERIRFKDSQNGNVSSFSTTFVFAIHSQIPTLSGHGIAFVVAPTLGLPFALPSQYIGLFNISNNGNDTNHIFAVEFDTIQSSEFGDPNDNHVGIDLNGLRSANYSTAGYRDDHDKFQNLSLISRKRIQVWIDYDNRSHRIDVTVAPFDSDKPRKPLVSYVRDLSSILLEDMYVGFSSATGSVLSEHFLVGWSFRLNGEAPMLSLSKLPKLPRFEPRRIS",glycan array binding signal (z-score),[1],-0.302
same,glycan array binding signal (z-score),[2],0.658
same,glycan array binding signal (z-score),[3],-0.38
same,glycan array binding signal (z-score),[4],0.306
same,glycan array binding signal (z-score),[5],-0.29
same,glycan array binding signal (z-score),[6],0.418
same,glycan array binding signal (z-score),[7],1.1
same,glycan array binding signal (z-score),[8],-0.288
same,glycan array binding signal (z-score),[9],-0.25
same,glycan array binding signal (z-score),[10],-0.334
same,glycan array binding signal (z-score),[11],-0.264
same,glycan array binding signal (z-score),[12],-0.37
same,glycan array binding signal (z-score),Neu5Ac(a2-6)GalNAc,-0.34
same,glycan array binding signal (z-score),[13],-0.371
same,glycan array binding signal (z-score),[14],-0.379
same,glycan array binding signal (z-score),[15],-0.328
same,glycan array binding signal (z-score),[16],-0.43
same,glycan array binding signal (z-score),Neu5Ac(a2-8)Neu5Ac,-0.356
same,glycan array binding signal (z-score),[17],-0.321
same,glycan array binding signal (z-score),[18],0.174
same,glycan array binding signal (z-score),[19],-0.403
same,glycan array binding signal (z-score),[20],-0.396
same,glycan array binding signal (z-score),[21],-0.317
same,glycan array binding signal (z-score),[22],1.7
same,glycan array binding signal (z-score),[23],-0.347
same,glycan array binding signal (z-score),[24],-0.307
same,glycan array binding signal (z-score),[25],-0.34
same,glycan array binding signal (z-score),[26],0.644
same,glycan array binding signal (z-score),[27],-0.284
same,glycan array binding signal (z-score),[28],-0.312
same,glycan array binding signal (z-score),[29],-0.252
same,glycan array binding signal (z-score),Neu5Ac(b2-6)GalNAc,-0.286
same,glycan array binding signal (z-score),[30],-0.385
same,glycan array binding signal (z-score),[31],-0.34
same,glycan array binding signal (z-score),[32],-0.363
same,glycan array binding signal (z-score),[33],-0.39
same,glycan array binding signal (z-score),[34],-0.349
same,glycan array binding signal (z-score),Neu5Gc(a2-3)Gal(b1-4)Glc,-0.356
same,glycan array binding signal (z-score),[35],-0.413
same,glycan array binding signal (z-score),[36],-0.369
same,glycan array binding signal (z-score),[37],-0.374
same,glycan array binding signal (z-score),[38],-0.362
same,glycan array binding signal (z-score),Neu5Gc(a2-6)GalNAc,-0.321
same,glycan array binding signal (z-score),[39],-0.365
same,glycan array binding signal (z-score),[40],-0.369
